In PubChem BioAssay (NCI):
Several values for one entry are separate records, joined by “and”; a condition that tells them apart may be missing. Equal values may be shown once.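 Results reflect a 48-hour exposure of cells in 96-well plates to compound at five concentrations. GI50 marks 50% less growth. TGI: concentration producing complete growth inhibition.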

Test system: NCI-H322M lung
Test: NCI anticancer screen, dose series, 48 h

Row | Structure (SMILES) | TGI | GI50
1 | O=C(NN1C(=O)C(Cl)C1c1ccc(Cl)cc1)c1c(Cl)c(Cl)c(Cl)c(Cl)c1-c1nc2ccccc2[nH]1 (stereo not drawn) | > 100 µM | 
2 | Cc1cc(Cl)ccc1OCC(=O)Nc1nc2c(Cl)cccc2s1 | > 100 µM | > 100 µM
3 | CCN(CC)CCCC(CCl)Nc1ccnc2cc(Cl)ccc12 (stereo not drawn) | 32.7 µM and 47 µM | 11.5 µM and 13.5 µM
4 | O=C1C2=Cc3ccccc3OC2(O)Oc2cc3ccccc3cc21 (stereo not drawn) | > 100 µM | 
5 | OCC12C=CC(C1)c1ccccc12 (stereo not drawn) | > 100 µM | 
6 | Cc1ccc(C2=C(c3ccc(C)cc3)C3(c4ccc(C)cc4)C4C(=O)OC(=O)C4C2(c2ccc(C)cc2)S3=O)cc1 (stereo not drawn) | 94.4 µM | 28.7 µM
7 | Cc1ccc(C)c(NC(=O)CC2Sc3ccccc3NC2=O)c1 (stereo not drawn) | > 100 µM | > 70.2 µM
8 | CC/C=C\C[C@H]1CC=C2C(=O)C=C[C@@H]2CC=CCCCC(=O)O[C@@H](CCCCC)CC=C2C(=O)C=C[C@@H]2CC=CCCCC(=O)O[C@@H](CCCCC)CC=C2C(=O)C=C[C@@H]2CC=CCCCC(=O)O[C@@H](CCCCC)CC=C2C(=O)C=C[C@@H]2CC=CCCCC(=O)O1 | > 7.9 µM | 4.32 µM
9 | O=C1OC(CCCN2CCCCC2)(c2ccccc2)CC12CCCC2 (stereo not drawn) | > 100 µM | 
10 | CC1(C)OCN(c2ccc(N3CCOCC3)cc2)Cn2c1nc1ccccc12 | > 100 µM | 
11 | CC(=O)OCC1OC(N2C(C)=C(C(C)=O)C(c3ccc(Cl)cc3)C(C#N)=C2S)C(OC(C)=O)C(OC(C)=O)C1OC(C)=O (stereo not drawn) | > 100 µM | 
12 | CC1(C)[C@@H]2CC[C@]1(C)[C@H](OC(=O)CSC#N)C2 | > 100 µM | 
13 | O=C1/C(=C/C=C/c2ccccc2)CCC1CNc1ccccc1 (stereo not drawn) | > 100 µM | 
14 | C=C1c2c(C)nn(-c3ccc(C#CCOC4OC(CO)C(O)C(O)C4O)cc3)c2N(C)C23C[C@H]1C1(C)c4c(C)nn(-c5ccc(C#CCOC6OC(CO)C(O)C(O)C6O)cc5)c4N(C)C(C)(C[C@H]12)C3 (stereo partly drawn) | 3.75 µM | 1.76 µM
15 | O=C(NC1=C(Cl)C(=O)c2ccccc2C1=O)c1ccccc1 | > 100 µM | 
16 | CCOC(=O)[CH-]C(=O)C12CC3CC(CC(C3)C1)C2.CCOC(=O)[CH-]C(=O)C12CC3CC(CC(C3)C1)C2.CC[O-].CC[O-].[Ti+4] | > 100 µM | > 100 µM
17 | CN(C)/C=C/C(=CC=[N+](C)C)/C=C/N(C)C | > 100 µM | 
18 | O=C(CSc1nnc(-c2ccccn2)s1)N/N=C/c1ccccc1 | > 100 µM | 
19 | Cc1cc(C)c2c(=O)cc(-c3cccc4ccccc34)[nH]c2n1 | > 100 µM | 
20 | O=C1C=C(Nc2ccccc2C(=O)CC(=O)C(=O)Nc2cccc([N+](=O)[O-])c2)c2ccccc2C1=O | > 100 µM | 
21 | N#CSCC(Cl)=CCl (mixture of isomers) | > 100 µM | 
22 | COC1(OC)N=C(N)C2(C#N)C(c3ccccc3)NC3=C(CCC3)C12C#N (stereo not drawn) | > 100 µM | 
23 | C=CC[C@]1(/C=N/O)CN(S(=O)(=O)CC[Si](C)(C)C)C[C@H]2CC=CC[C@H]21 | 69.8 µM | 
24 | CCCCCCCCn1ccc2cc(NC(=O)Cn3cc(CN4CCCCCC4)nn3)ccc21 | 3.15 µM | 1.69 µM

Row | Structure (SMILES) | TGI | GI50
25 | COc1ccc([C@@]2(O)c3c(ccc(O)c3OC)[C@H]2OC)c(OC)c1 | > 100 µM | 
26 | CC(C)C(O)(C(C)C)C(C)C | > 100 µM | 
27 | CCN(CC)CCNC(Cc1ccccc1)c1ccc(OCc2ccccc2)cc1 (stereo not drawn) | 20.2 µM | 7.15 µM
28 | O=S(Cc1ccccc1)c1nc2ccccc2nc1-c1cccs1 (stereo not drawn) | 30.1 µM | 
29 | C#CC1(O)C(COP(=O)(O)OCC(COP(=O)(O)OCC2OC(n3cc(F)c(=O)[nH]c3=O)CC2O)OCCCCCCCCCCCCCCCCCC)OC(n2ccc(N)nc2=O)C1O (stereo not drawn) | > 23 µM | 0.69 µM
30 | C#CCn1c(=O)c(I)cn(/C(=C/C(=O)OCC)C(=O)OCC)c1=O | 30.8 µM | 
31 | COC(=O)[C@@H]1C[C@H]2OC(=O)CC[C@]2(C)O[C@H]1[C@H]1O[C@@](C)(O)CCC[C@H]1C | > 50 µM | 
32 | Nc1cc([N+](=O)[O-])ccc1C(=O)N1CCC[C@H]1CO | > 100 µM | 
33 | C=C1C(=O)OC2/C=C(\C(=O)O)CC/C=C(\C)CC(OC(=O)/C=C(\C)CC)C12 (stereo not drawn) | 31.1 µM | 
34 | C=C(C)[C@@H]1CC[C@]2(COCCCN)CC[C@]3(C)[C@H](CC[C@@H]4[C@@](C)(CCCNCCCN)[C@H](C(=C)C)CC[C@]43C)[C@@H]12 | 2.9 µM | 1.56 µM
35 | Nc1ncnc2c1ncn2C1C=C(CO)C(O)C1O (stereo not drawn) | > 100 µM | 
36 | O=[N+]([O-])c1ccc(CSc2nncc3[nH]cnc23)cc1 | > 100 µM | 
37 | Nn1c(C23CC4CC(CC(C4)C2)C3)n[nH]c1=S | > 100 µM | 
38 | O=C(Nc1ccc(C(F)(F)F)cc1[N+](=O)[O-])C(=O)C1NC(=S)NC1=O (stereo not drawn) | > 100 µM | 
39 | C=CC[P@]1(=O)O[C@H](c2ccccc2)[C@H](C)N1C | > 100 µM | 
40 | C=C(CCOC)CCC1CCCCC(CN(C)C)C1=O (stereo not drawn) | > 100 µM | 
41 | CC1(O)C(C)(O)C2(C)O[Te]3(OC12C)OC1(C)C(C)(O)C(C)(O)C1(C)O3 (stereo not drawn) | > 100 µM | 
42 | CCN1CCCc2cc3c(C(F)(F)F)cc(=O)oc3cc21 | > 100 µM | 
43 | O=S(=O)(C1=CC(S(=O)(=O)c2ccccc2)CN(Cc2ccccc2)C1c1cccc2ccccc12)c1ccccc1 (stereo not drawn) | > 69 µM | 
44 | N[C@@H]1CCN(c2c(F)cc3c(=O)c(C(=O)O)cn4c3c2Oc2c-4ccc3c2ccc2ccccc23)C1 | > 100 µM | 
45 | COc1ccc2c(c1)CN1C(=N2)CSC1c1cccc(Br)c1 (stereo not drawn) | > 100 µM | 
46 | O=C(O)c1c2c(cc3c1CC(Cc1ccccc1)C3=O)CCC2 (stereo not drawn) | > 100 µM | 
47 | Cc1ccc2c(ccc(/C=C/c3ccc(O)c4ncccc34)[n+]2C)c1 | 24.9 µM | 
48 | O=C(NC(=O)c1c(F)cccc1F)Nc1cccc(Oc2ncc(Cl)cn2)c1 | > 100 µM | 

Row | Structure (SMILES) | TGI | GI50
49 | Nc1ccccc1CCN1CCN(CCCc2ccccc2)CC1 | > 100 µM | 
50 | NC(CSC(c1ccccc1)(c1ccccc1)c1ccccc1)C(=O)NCC(=O)O (stereo not drawn) | > 100 µM | 4.85 µM
51 | O=C1CS(=O)(=O)C(c2cccc(Oc3ccccc3)c2)N1c1ccc(Cl)cc1 (stereo not drawn) | > 100 µM | 
52 | CC(=O)SCCC(NC(=S)Nc1ccccc1)P(=O)(Oc1ccccc1)Oc1ccccc1 (stereo not drawn) | > 100 µM | 
53 | CC(C)(C)C1CCC(=O)/C(=C/CC2CC(=O)N(c3ccccc3)C(=O)C2)C1 (stereo not drawn) | 44.1 µM | 
54 | Cc1ccc(C(=O)O)c(/C=C2\Cc3ccc(C)cc3C2=O)c1 | > 100 µM | 
55 | COc1cc(NCC(C#N)C#N)ccc1N=Nc1ccc(Cl)cc1 | > 100 µM | 
56 | Cc1cn(-c2cc(NC(=O)c3cccc(C#Cc4cccc5[nH]nc(N)c45)c3)cc(C(F)(F)F)c2)cn1 | > 100 µM | 20.6 µM
57 | CCOc1cc(C(C)(C)C)ccc1C1=N[C@H](c2ccc(Cl)cc2)[C@H](c2ccc(Cl)cc2)N1C(=O)N1CCN(CC#Cc2cccc3c2CN([C@@H]2CCC(=O)NC2=O)C3=O)CC1 | > 100 µM | 0.206 µM
58 | CCOC(=O)C(NC(=O)Nc1ccc(C)cc1)(OCC)C(F)(F)F (stereo not drawn) | > 100 µM | 
59 | COc1c(=O)cc2cc[nH]c3cc[nH]c1c23 | > 100 µM | 
60 | CCCCCCCCCCCCCP(=O)(O)O | > 100 µM | 
61 | O=C(Nc1cccc(O)c1)C(=O)C1C(=O)NC(=S)NC1=O | > 100 µM | 
62 | COc1ccc2nc3cc(Cl)ccc3c(Sc3ccc([N+](=O)[O-])cc3C)c2c1 | > 100 µM | 
63 | CN(C)CCC(=O)N1C/C(=C\c2ccc(Cl)c(Cl)c2)C(=O)/C(=C/c2ccc(Cl)c(Cl)c2)C1 | 1.69 µM | 
64 | CCC(=O)OC[n+]1ccc2c(C)c3[nH]c4ccccc4c3c(C)c2c1 | 1.98 µM | 
65 | C[C@]12CCc3sc(Nc4ccc(OC(F)(F)F)cc4)nc3C1=CC[C@@H]1[C@@H]2CC[C@]2(C)C(=O)CC[C@@H]12 | 48.9 µM | 6.05 µM
66 | CN(c1ccc(NC(=O)Nc2c(Cl)cccc2Cl)cc1)c1ccnc(Nc2cccc(CS(C)(=O)=O)c2)n1 | 13 µM | 4.23 µM
67 | CCCCCCCCCC[C@@H](OC(C)=O)[C@@H]1CC[C@@H]([C@@H]2CC[C@@H]([C@@H](O)CC#C/C=C/CCCCCCC[C@@]3(Sc4ccccc4)C[C@H](C)OC3=O)O2)O1 | > 10 µM | 
68 | Nc1ncc(-c2cnn(C3CCNCC3)c2)cc1-c1nc2cc(Cl)ccc2o1 | 3.4 µM | 1.84 µM
69 | CCN1C(=O)/C(=C/c2c(Cl)[nH]c3cc(C)c(OC)cc23)c2ccccc21 | > 100 µM | 8.39 µM
70 | COc1ccc2c(c1)/C(=C\c1c(Cl)[nH]c3cc(C)c(OC)cc13)C(=O)N2 | 15.7 µM | 
71 | COC(=O)C(=O)CC(=O)CCn1[nH]c(=O)c(Cl)c(Cl)c1=O | > 100 µM | 
72 | OC(CNc1ccccn1)c1ccccc1 (stereo not drawn) | > 100 µM | 

Row | Structure (SMILES) | TGI | GI50
73 | O=C(/C=C/c1ccc(O)c(O)c1)OCC(OC(=O)/C=C/c1ccc(O)c(O)c1)C(=O)O (stereo not drawn) | > 100 µM | 
74 | CNc1ncccc1Nc1cc(=O)n2c3cccnc3n(C)c2c1 | > 100 µM | 
75 | CCN1C(=O)c2ccc3c4c(ccc(c24)C1=O)C(=O)N(CCCNCc1ccccc1OC)C3=O | 2.92 µM | 0.756 µM
76 | ONC1=Nc2cc(Cl)ccc2C(=S)N2CSCC12 (stereo not drawn) | > 100 µM | 
77 | Clc1ccc(CCN(CCc2ccc(Cl)c(Cl)c2)CCN2CCCC2)cc1Cl | 5.85 µM | 
78 | CSc1c(C(=O)Nc2ccccc2)c(N)n(N)c(=O)c1C#N | > 100 µM | 
79 | Cc1cccc(Cl)c1NCC(O)CN1CCN(C)CC1 (stereo not drawn) | > 100 µM | 
80 | COc1cc(C2c3cc4c(cc3OC(C)(N3CCCC3)C2C)OCO4)cc(OC)c1OC (stereo not drawn) | > 17.6 µM | 
81 | CN(C)CCOc1ccc([N+](=O)[O-])c2cccnc12 | > 100 µM | 
82 | COC(=O)c1ccc2[nH]c(O)c(C(=Nc3ccc(N(C)C(=O)CN4CCN(C)CC4)cc3)c3ccc4c(c3)OCO4)c2c1 | 4.04 µM | 0.908 µM
83 | COc1cc(Nc2ncccc2C(=O)Nc2nc3ccc(F)cc3s2)cc(OC)c1OC | > 100 µM | 3.71 µM
84 | CSC(SC)(C(=O)O)c1cc(-c2c(Cl)cccc2Cl)no1 | 93.5 µM | 
85 | CC12C=CC(C)(C3C(=O)C4C(C(=O)C31)C1(C)C=CC4(C)S1=O)S2=O (stereo not drawn) | > 100 µM | 
86 | N#C[S-].[La+3].c1cnc2c(c1)ccc1cccnc12.c1cnc2c(c1)ccc1cccnc12.c1cnc2c(c1)ccc1cccnc12 | 10.4 µM | 
87 | CS(=O)(=O)Nc1ccc2ccccc2c1-c1c(NS(C)(=O)=O)ccc2ccccc12 | > 25 µM | 
88 | O=C(O)CCCc1ccc2ccc3ccccc3c2c1 | > 100 µM | 
89 | CCCOC(=O)N[C@H]1CCc2c(Cl)c(OC)c(OC)c(OC)c2-c2ccc(SC)c(=O)cc21 | > 100 µM | < 0.01 µM
90 | COc1ccc2c(c1)C(=O)/C(=C/c1cccc(OCC(=O)c3ccccc3)c1)O2 | 33.6 µM | 19.4 µM
91 | COc1ccc(CC2COc3cc(OC)cc(OC)c3C2=O)cc1 (stereo not drawn) | > 100 µM | 
92 | O=C1C=CC(=O)C2C1C1(Cl)C(Cl)=C(Cl)C2(Cl)C1(Cl)Cl (stereo not drawn) | 12.8 µM | 2.96 µM
93 | O=C1NC(=S)S/C1=C/c1ccc2c(c1)OCO2 | > 100 µM | 41.8 µM
